Results on 26 compounds are retold here after article PMC4336329 (PLoS ONE, 2015).

Hit rate of the full screen: of about 310,000 compounds, about 2,200 (0.71%) showed an effect of 50% or more. The effect is printed as a negative number. This is one part of the list.

The target in the assay is human ether-à-go-go-related gene (hERG) potassium channel (human, UniProt Q12809). In words: primary screen, population patch clamp on CHO cells stably expressing hERG.
Sequence of human ether-à-go-go-related gene (hERG) potassium channel (Q12809 whole entry, looked up): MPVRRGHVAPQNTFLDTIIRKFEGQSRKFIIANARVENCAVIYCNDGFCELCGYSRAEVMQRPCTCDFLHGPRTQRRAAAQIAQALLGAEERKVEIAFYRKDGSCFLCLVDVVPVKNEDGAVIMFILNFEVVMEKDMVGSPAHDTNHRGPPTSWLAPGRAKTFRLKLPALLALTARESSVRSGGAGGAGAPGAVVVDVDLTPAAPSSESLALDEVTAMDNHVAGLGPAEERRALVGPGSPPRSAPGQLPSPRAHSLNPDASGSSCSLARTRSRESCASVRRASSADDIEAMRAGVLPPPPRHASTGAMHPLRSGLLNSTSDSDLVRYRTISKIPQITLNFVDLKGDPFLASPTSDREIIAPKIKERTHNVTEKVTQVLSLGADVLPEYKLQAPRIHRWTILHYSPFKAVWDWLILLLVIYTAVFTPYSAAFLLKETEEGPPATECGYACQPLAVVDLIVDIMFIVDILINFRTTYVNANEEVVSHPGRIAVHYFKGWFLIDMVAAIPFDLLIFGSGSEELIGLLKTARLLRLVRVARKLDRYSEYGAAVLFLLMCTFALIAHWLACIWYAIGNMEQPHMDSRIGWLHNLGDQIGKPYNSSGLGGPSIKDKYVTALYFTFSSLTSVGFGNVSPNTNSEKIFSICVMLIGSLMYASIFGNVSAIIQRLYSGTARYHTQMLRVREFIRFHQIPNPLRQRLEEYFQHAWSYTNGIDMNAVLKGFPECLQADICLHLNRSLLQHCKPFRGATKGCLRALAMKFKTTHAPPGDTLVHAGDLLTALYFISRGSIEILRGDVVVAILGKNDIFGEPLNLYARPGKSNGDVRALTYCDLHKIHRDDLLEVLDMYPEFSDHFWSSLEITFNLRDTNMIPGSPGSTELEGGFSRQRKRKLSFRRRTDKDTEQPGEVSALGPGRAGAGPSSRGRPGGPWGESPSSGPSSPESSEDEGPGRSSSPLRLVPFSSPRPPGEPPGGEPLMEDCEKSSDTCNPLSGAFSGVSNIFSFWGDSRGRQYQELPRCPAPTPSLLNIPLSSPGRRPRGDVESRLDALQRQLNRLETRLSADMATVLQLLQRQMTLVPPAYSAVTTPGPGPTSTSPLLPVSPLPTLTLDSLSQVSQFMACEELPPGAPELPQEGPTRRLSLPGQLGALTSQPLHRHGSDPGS
For the compound `O=[N+]([O-])c1ccc(/C([O-])=C(/C(=S)Nc2ccccc2F)[n+]2ccccc2)cc1`, the “hERG current change (%, negative = inhibition) at 1uM” value stood at 1.93%.
With `CCSc1nnc(CNc2ccc(C)cc2)n1C` the figure was 9.42%; with `O=C1CC(NNc2nc3ccccc3s2)C(=O)N1c1ccc(F)cc1` (centres unmarked), 13.6%.
Turning to `COc1ccc(S(=O)(=O)NC2CCCCC2)cc1C`, the “hERG current change (%, negative = inhibition) at 1uM” value is on record as 2.78%.
With `CN(C)C(=S)SCC(=O)NC(=O)NC(C)(C)C` the figure was 14%; with `Cc1cccc(C)c1OC(=O)CSc1nnc(-c2ccccc2)o1`, 10.8%.
Next, `Cc1nnc(SCC(=O)Nc2ccc(Br)cc2)n(N)c1=O`: 8.03%; `CCCN(CCC)Cc1c(C(=O)N/N=C/c2c[nH]c3ccccc23)nnn1-c1nonc1N`: 6.41%; `O=C(c1ccc(Cl)cc1)n1cnc2ccccc21`: 8.54%.
Next, `Cc1ccsc1/C=N\NC(=O)c1cc(C(C)(C)C)[nH]n1`: 6.9%; `CCCCN(CCCNC(=O)C1CCN(S(=O)(=O)N2CCOCC2)CC1)c1ccccc1`: -3.94%.
Consider `CC(=O)Nc1ccccc1C`, for which the “hERG current change (%, negative = inhibition) at 1uM” value amounted to 11.4%.
Next, `Cc1cccc(N(C)C(=O)c2cc(S(=O)(=O)N3CCc4ccccc43)cn2C)c1`: 3%.
Next, `O=C(c1ccco1)N1CCN(c2ncnc3scc(-c4cccs4)c23)CC1`: -36.9%.
In the case of `COc1cc2[nH]c(=O)n(CCC(=O)NCCC(C)C)c(=O)c2cc1OC`, the “hERG current change (%, negative = inhibition) at 1uM” value is 7.96%.
With `C=CCn1c(Cc2ccc(OC)cc2)nnc1SCC(N)=O`, the “hERG current change (%, negative = inhibition) at 1uM” value was 0.195%.
As to `CCCN(CCC)c1nc(N(CCC)CCC)[nH]c(=O)n1`, the “hERG current change (%, negative = inhibition) at 1uM” value stood at 9.89%.
For the compound `COc1ccc(S(=O)(=O)N2CCCC2CNC(=O)C(=O)NCc2ccc(C)cc2)cc1` (centres unmarked), the “hERG current change (%, negative = inhibition) at 1uM” value is recorded as -2.03%.
With `Cc1cc(CNC(=O)c2cc(Br)ccc2Cl)nn1C` the figure was 1.23%.
`COc1ccccc1P(=O)(c1ccccc1)c1ccccc1`: the “hERG current change (%, negative = inhibition) at 1uM” value was determined as 16.5%.
Next, `CC1(C)[C@H]2CC=C(CN3CCC(N4CCC(C(=O)N5CCCC5)CC4)CC3)[C@@H]1C2`: 1.61%.
With `O=C(NCCCN1CCOCC1)C1Cc2c(ccc3ccccc23)O1` (centres unmarked) the figure was 10.2%; with `COc1cc(Cl)c(CN2CCCC(CO)(Cc3cccc(Cl)c3)C2)cc1OC` (centres unmarked), 13.8%; with `Cc1nc2c([N+](=O)[O-])c(C)c(C)cc2[nH]1`, 7.78%.
With `COc1cc(CNCc2ccc3c(c2)OCO3)c([N+](=O)[O-])cc1OC`, the “hERG current change (%, negative = inhibition) at 1uM” value is given as 11.7%.
Next, `Cc1[nH]c2ccccc2c1C(=O)C(=O)NCC1CCCO1` (centres unmarked): 9.3%.
